Consider 1 molecule from patent publication US20080311122A1, “Antagonists of Hmgb1 and/or Rage and Methods of Use Thereof” (Medimmune, LLC, priority 2005, published 2008).

The target in assay [1] is T1, HMGB-1 (Homo sapiens, UniProt P09429).
T1 sequence (P09429 1-215): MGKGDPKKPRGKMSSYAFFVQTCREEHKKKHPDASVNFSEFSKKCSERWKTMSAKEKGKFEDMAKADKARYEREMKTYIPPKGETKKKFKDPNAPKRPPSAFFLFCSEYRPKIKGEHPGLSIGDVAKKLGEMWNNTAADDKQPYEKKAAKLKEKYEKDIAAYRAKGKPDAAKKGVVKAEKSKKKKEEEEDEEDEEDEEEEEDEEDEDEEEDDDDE
In words: Antibody HMG1 binding competition via BIAcore analysis. As for the experimental part:
Antibody HMG1 Binding Competition via BIAcore Analysis: All experiments were performed on a BIAcore 3000 instrument (BIAcore, Inc., Piscataway, N.J.). The HMGB-1 protein was immobilized onto a CM5 sensor using a standard amine coupling chemistry protocol, as described in the BIAcore Handbook (BIAcore, Inc., Piscataway, N.J.). Briefly, the CM5 surface subject to the NHS/EDC activation. After activation a HMGB-1 was injected over the surface at a concentration of 100 nM or 200 nM (in 10 mM NaOAc, pH4) to a surface density of between 1100 and 1200 RU's. Following this, unreacted sites on the sensor chip surface were “capped” with an injection of 1M ethanolamine. For reference purposes, a blank flow cell was also prepared, utilizing this same procedure that was used to immobilize HMGB-1, but without any ligand.
MAbs G2, G4, G9, S6 and Synagis were prepared at 1 uM and 2 uM. All mAb solutions were prepared in HBS-EP buffer (BIAcore, Inc., Piscataway, N.J.). Each cycle started with a 100 μL injection of the first mAb, injected at 1 μM, followed by a second 100 μL injection of a 1:1 mixture of two, 2× concentration mAbs, such that the final concentration of each component mAb in the mixture is equivalent to the first injection. […]
Once the entire set had been collected, the maximum RU responses for each mAb after each injection cycle was recorded. […]
Background: In SPR one partner is held on a chip, and binding of the other changes the refractive index at the surface.

The test system of assay [2] is mouse CLP model of sepsis. Briefly: Cecal ligation and puncture (CLP) model of sepsis. The assay is classed as in vivo. The following applies: percent protection, isotype control subtracted. As for the experimental part: Anti-HMGB1 in Sepsis: To establish live intra-abdominal infection and sepsis, Balb/C mice (9-11 per group) were subjected to the CLP procedure as described previously (Fink and Heard, 1990, J Surg Res 49:186-196; Wichmann et al., 1996, J Surg Res 65, 109-114). After anesthesia with an intramuscular injection of ketamine (75 mg/kg, Fort Dodge Laboratories, Fort Dodge, Iowa) and xylazine (20 mg/kg, Bochringer Ingelheim), a 15-mm midline incision was made to expose the cecum. After ligation 5.0 mm from the tip, the cecal stump was punctured once with a 22-gauge needle, and small amount of stool (1-mm length) was extruded. The cecum was placed back into its normal intra-abdominal position, and the wound was closed with two layers of running suture. All animals received saline-solution (0.9% s.c., 20 ml/kg of body weight) resuscitation, and a single dose of antibiotic (0.5 mg of imipenem per mouse in 200 μl of sterile saline injected s.c.) (Primaxin, Merck) 30 min after surgery.
Anti-HMG1 antibodies or isotype control antibodies (50 μg/mouse in a 200 μl volume), were administered intraperitoneally at 24 and 48 hours, post surgery. In certain follow up experiments anti-HMG1 antibodies or isotype control antibodies (8 mg/kg) were administered intraperitoneally at 24 hours, post surgery (FIG. 11C-D). […] The survival of the mice was monitored twice daily for a total of 14 days. […]

Assay [3] concerns the target T2, HMG1 peptides (Homo sapiens, UniProt P09429).
T2 sequence (P09429 91-169 P98L): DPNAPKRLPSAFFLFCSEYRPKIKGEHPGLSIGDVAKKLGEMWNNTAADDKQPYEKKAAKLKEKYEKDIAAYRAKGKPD
Briefly: HMG1 B Box and peptide mapping ELISA. The assay is classed as binding. Particulars: B Box peptide ELISA. The method, then:
(§1) HMG1 B Box and Peptide Mapping: Individual wells of a 96-well immunoplate (EIA/RIA plate, High binding, Costar) were coated with HMG1 B Box peptide amino acids 91-169 (FIG. 5A) or amino acids 150-183 (FIG. 5B) at 10 μg/ml in PBS at 4° C. overnight. The plate was then blocked with 4% milk powder dissolved in PBS at 37° C. for 1 hour. The blocking solution was removed and replaced with human anti-HMG1 antibodies at various concentrations (see FIGS. 5A-B). The plate was then washed (ELX-405 Plate washer, BIO-TEK) and secondary antibody (anti-human IgG-HRP, PIERCE) was added at a final concentration of 1:125,000 at 37° C. for 1 hour. HRP activity was detected with Sureblue HRP substrate (KPL). Plates were read at 450 nm using a Kinetic Microplate Reader (Molecular Devices). To obtain more detailed peptide mapping information, similar ELISA assays were performed using 16 biotinylated overlapping peptides spanning the HMGB1 protein from amino acid 1 to 215 as follows, maxisorp microtiter plate was coated with 2 μg/ml of NeutroAvidin (Pierce) overnight at 4° C. After washing and blocking with 1% BSA in PBS, the biotinylated peptides were individually added into the avidin coated wells and incubated for 30 min at room temperature. […] Detection was accomplished by adding 50 μl of tetramethylbenzidine (TMB) substrate (KPL) and the absorbance was read at […]. […]
(In an ELISA, binding on a coated surface is turned into a signal by an enzyme label.)

The target in assay [4] is T3, HMG1 peptides (Homo sapiens, UniProt P09429).
T3 sequence (P09429 150-183): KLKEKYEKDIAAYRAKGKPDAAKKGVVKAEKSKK
In words: HMG1 B Box and peptide mapping ELISA. Particulars: B Box peptide ELISA. The class given is binding. As for the experimental part:
as §1
This is another data set of the same source.

B1: S2: human anti-HMG1 antibody, ATCC PTA-6142; VL/VH aa SEQ ID NO: 5/7 (antibody, listed as Homo sapiens, V domains shown)
VH: EVQLLESGGGLVQPGGSLRLSCAASGFTFSGYMMVWVRQAPGKGLEWVSRISPSGGQTGYADSVKGRFTISRDNSKNTLYLQMNSLRAEDTAVYYCAREEGGSYGAFDIWGQGTMVTVSS
VL: [gap - about 100 residues]FGQGTKVEIK
For B1, in assay [1], the “binding sites on HMGB1 by BIAcore competition” value is on record as “bind to either the same site or sites that are highly related perhaps overlapping”. The “in vivo CLP” value in assay [2] is reported as 15%. Besides, in assay [3], the “binding to HMG1 peptide 91-169” value is “do not bind either of the HMG1 B Box peptides”. Moreover, the “binding to HMG1 peptide 150-183” value in assay [4] is reported as “do not bind either of the HMG1 B Box peptides”.
